# Laboratory results as given in patent publication US8962670B2, “Anti-cancer agents” (UWM Research Foundation, Inc., priority 2011, dated 2015).
# Tested on: 49 mer DNA duplex 292
# Experiment: DNA ICL formation with/without H2O2, denaturing PAGE (Example 15)
SMILES,cross-linking yield (10 μM compound + 5 μM H2O2) [%],cross-linking yield (100 μM compound + 50 μM H2O2) [%],cross-linking yield (2 mM compound + 1 mM H2O2) [%]
"CC1(C)OB(c2ccc(-c3ccc(B4OC(C)(C)C(C)(C)O4)c(C[N+](C)(C)C)c3)cc2C[N+](C)(C)C)OC1(C)C [Compound 47, 3,3′-Di(trimethyl)-[4,4′-di(4,4,5,5-tetramethyl-[1,3,2]dioxaborolan-2-yl)-biphenyl]-ammonium bromide]",0,,
"CC1(C)OB(c2cc(C[N+](C)(C)C)c(B3OC(C)(C)C(C)(C)O3)cc2C[N+](C)(C)C)OC1(C)C [Compound 48, 1,4-Di-trimethyl-[2,5-di(4′,4′,5′,5′-tetramethyl-[1′,3′,2′]dioxaborolan-2′-yl)-benzyl]-ammonium bromide]",2,8,24
